Experimental data: patent US20260207606A1, “DOSING SCHEDULE OF A SOLID DISPERSION OF A HER2 INHIBITOR” (Boehringer Ingelheim International GmbH, priority 2022, published 2026)

System: HER2 aberration-positive advanced and/or metastatic solid tumours
Experiment: Phase Ia dose escalation trial: tumour response according to RECIST v1.1, duration of treatment and response
Format: in vivo, human
Text: Tumour assessments should include computed tomography (CT) scans of the chest, abdomen/pelvis (or PET/CT) and a brain MRI at screening. If clinically indicated, imaging of any other known or suspected sites of disease (e.g. bone) using an appropriate method (CT scan, MRI, PET/CT, or bone scan) should be performed. The same radiographic procedure must be used throughout the trial. Assessments will be performed by the investigator at screening (≤28 days prior to initiation of treatment), every 2 cycles (6 weeks ±5 days), at the end-of-treatment (EOT) visit (if not performed within the previous 3 weeks), and at the discretion of the investigator, and copies may be collected by the sponsor or designee. Wherever possible the assessment schedule should not be changed, but if there is an interruption or delay to treatment, alteration of the tumour assessment schedule to align with clinical assessments is allowed. Additional unscheduled tumour assessments may be performed at the discretion of the investigator. If the patient stops trial medication for a reason other than progression, tumour assessment according to RECIST v1.1 continues until progression (or until one of the following occurs; death, lost to follow-up, end of the trial).
Tumour response is evaluated according to RECIST Version 1.1 (Eisenhauer E A, Therasse P, Bogaerts J, Schwartz L H, Sargent D, Ford R, et al. New response evaluation criteria in solid tumours: revised RECIST guideline (version 1.1). Eur J Cancer. 2009; 45:228-247). RECIST 1.1 is used for a) whole-body assessment (classical RECIST 1.1) and b) the tumour assessment of non-CNS areas. The assessment according to classical RECIST 1.1 by the investigator and/or the local radiologist is the basis for continuation or discontinuation of the trial in an individual patient (in addition to safety). No whole-body RECIST assessment is performed in the dose escalation part.

[1] = 60 mg QD, 5 patients, regardless of confirmation, data lock 17 Mar. 2023
[2] = 120 mg QD, 4 patients, regardless of confirmation, data lock 17 Mar. 2023
[3] = 180 mg QD, 6 patients, regardless of confirmation, data lock 17 Mar. 2023
[4] = 240 mg QD, 6 patients, regardless of confirmation, data lock 17 Mar. 2023
[5] = 300 mg QD, 5 patients, regardless of confirmation, data lock 17 Mar. 2023
[6] = 32 of 36 patients with tumour response assessments, BID and QD
[7] = QD Total, 26 patients, regardless of confirmation, data lock 17 Mar. 2023
[8] = excluding patients with best overall response non-evaluable at data cut-off

## C=CC(=O)NC1CCN(c2ncc3ncnc(Nc4ccc(Oc5ccc6c(c5)ncn6C)c(C)c4)c3n2)CC1 [compound (1), N-{1-[8-({3-methyl-4-[(1-methyl-1H-1,3-benzodiazol-5-yl)oxy]phenyl}amino)-[1,3]diazino[5,4-d]pyrimidin-2-yl]piperidin-4-yl}prop-2-enamide]
15 mg BID
  Best overall response (RECIST 1.1): Complete response, %: 0.0%
  Best overall response (RECIST 1.1): Non-CR/Non-PD, %: 0.0%
  Best overall response (RECIST 1.1): Not evaluable, %: 0.0%
  Best overall response (RECIST 1.1): Partial response, %: 0.0%
  Best overall response (RECIST 1.1): Progressive disease, %: 0.0%
  Best overall response (RECIST 1.1): Stable disease, %: 100.0%
30 mg BID
  Best overall response (RECIST 1.1): Complete response, %: 0.0%
  Best overall response (RECIST 1.1): Non-CR/Non-PD, %: 0.0%
  Best overall response (RECIST 1.1): Not evaluable, %: 0.0%
  Best overall response (RECIST 1.1): Partial response, %: 66.7%
  Best overall response (RECIST 1.1): Progressive disease, %: 0.0%
  Best overall response (RECIST 1.1): Stable disease, %: 33.3%
60 mg BID
  Best overall response (RECIST 1.1): Complete response, %: 0.0%
  Best overall response (RECIST 1.1): Non-CR/Non-PD, %: 0.0%
  Best overall response (RECIST 1.1): Not evaluable, %: 0.0%
  Best overall response (RECIST 1.1): Partial response, %: 50.0%
  Best overall response (RECIST 1.1): Progressive disease, %: 0.0%
  Best overall response (RECIST 1.1): Stable disease, %: 50.0%
[1]
  Best overall response (RECIST 1.1): Complete response, %: 0.0%
  Best overall response (RECIST 1.1): Non-CR/Non-PD, %: 0.0%
  Best overall response (RECIST 1.1): Not evaluable, %: 0.0%
  Best overall response (RECIST 1.1): Partial response, %: 40.0%
  Best overall response (RECIST 1.1): Progressive disease, %: 20.0%
  Best overall response (RECIST 1.1): Stable disease, %: 40.0%
100 mg BID
  Best overall response (RECIST 1.1): Complete response, %: 0.0%
  Best overall response (RECIST 1.1): Non-CR/Non-PD, %: 0.0%
  Best overall response (RECIST 1.1): Not evaluable, %: 0.0%
  Best overall response (RECIST 1.1): Partial response, %: 25.0%
  Best overall response (RECIST 1.1): Progressive disease, %: 0.0%
  Best overall response (RECIST 1.1): Stable disease, %: 75.0%
[2]
  Best overall response (RECIST 1.1): Complete response, %: 0.0%
  Best overall response (RECIST 1.1): Non-CR/Non-PD, %: 0.0%
  Best overall response (RECIST 1.1): Not evaluable, %: 0.0%
  Best overall response (RECIST 1.1): Partial response, %: 50.0%
  Best overall response (RECIST 1.1): Progressive disease, %: 25.0%
  Best overall response (RECIST 1.1): Stable disease, %: 25.0%
150 mg BID
  Best overall response (RECIST 1.1): Complete response, %: 0.0%
  Best overall response (RECIST 1.1): Non-CR/Non-PD, %: 0.0%
  Best overall response (RECIST 1.1): Not evaluable, %: 33.3%
  Best overall response (RECIST 1.1): Partial response, %: 33.3%
  Best overall response (RECIST 1.1): Progressive disease, %: 0.0%
  Best overall response (RECIST 1.1): Stable disease, %: 33.3%
[3]
  Best overall response (RECIST 1.1): Complete response, %: 0.0%
  Best overall response (RECIST 1.1): Non-CR/Non-PD, %: 0.0%
  Best overall response (RECIST 1.1): Not evaluable, %: 16.7%
  Best overall response (RECIST 1.1): Partial response, %: 16.7%
  Best overall response (RECIST 1.1): Progressive disease, %: 0.0%
  Best overall response (RECIST 1.1): Stable disease, %: 66.7%
[4]
  Best overall response (RECIST 1.1): Complete response, %: 0.0%
  Best overall response (RECIST 1.1): Non-CR/Non-PD, %: 0.0%
  Best overall response (RECIST 1.1): Not evaluable, %: 50.0%
  Best overall response (RECIST 1.1): Partial response, %: 33.0%
  Best overall response (RECIST 1.1): Progressive disease, %: 16.7%
  Best overall response (RECIST 1.1): Stable disease, %: 0.0%
[5]
  Best overall response (RECIST 1.1): Complete response, %: 0.0%
  Best overall response (RECIST 1.1): Non-CR/Non-PD, %: 0.0%
  Best overall response (RECIST 1.1): Not evaluable, %: 80.0%
  Best overall response (RECIST 1.1): Partial response, %: 0.0%
  Best overall response (RECIST 1.1): Progressive disease, %: 0.0%
  Best overall response (RECIST 1.1): Stable disease, %: 20.0%
[6]
  PD, patients: 3
  best tumor response of partial response (PR), regardless of confirmation, patients: 12
  complete response (CR), patients: none of the patients
  stable disease, patients: 17
35 patients treated for at least one cycle of 21 days on Jan. 23, 2023
  patients with at least one PR assessment, %: 37.14%
BID Total
  Best overall response (RECIST 1.1): Complete response, %: 0.0%
  Best overall response (RECIST 1.1): Non-CR/Non-PD, %: 0.0%
  Best overall response (RECIST 1.1): Not evaluable, %: 5.9%
  Best overall response (RECIST 1.1): Partial response, %: 35.3%
  Best overall response (RECIST 1.1): Progressive disease, %: 0.0%
  Best overall response (RECIST 1.1): Stable disease, %: 58.8%
[7]
  Best overall response (RECIST 1.1): Complete response, %: 0.0%
  Best overall response (RECIST 1.1): Non-CR/Non-PD, %: 0.0%
  Best overall response (RECIST 1.1): Not evaluable, %: 30.8%
  Best overall response (RECIST 1.1): Partial response, %: 26.9%
  Best overall response (RECIST 1.1): Progressive disease, %: 11.5%
  Best overall response (RECIST 1.1): Stable disease, %: 30.8%
QD schedule, 18 patients
  patients with at least one PR assessment, %: 38.89%
All treated patients
  median duration of response (Kaplan Meier estimates): 7 months
[8]
  disease control rate (DCR): 95.8%
  overall response rate (ORR): 45.8%
Higher dose range (180 mg-300 mg)
  exposure-response relationships for tumor shrinkage and ORR: Flat
